Results taken from article PMC12820563, “FoxP3 forms a head-to-head dimer in vivo and stabilizes its multimerization on adjacent microsatellites”.
The list shows a part of the results.

Target: T1, MBP-FoxP1dN (Mus musculus, UniProt P58462 326-579)
T1 sequence: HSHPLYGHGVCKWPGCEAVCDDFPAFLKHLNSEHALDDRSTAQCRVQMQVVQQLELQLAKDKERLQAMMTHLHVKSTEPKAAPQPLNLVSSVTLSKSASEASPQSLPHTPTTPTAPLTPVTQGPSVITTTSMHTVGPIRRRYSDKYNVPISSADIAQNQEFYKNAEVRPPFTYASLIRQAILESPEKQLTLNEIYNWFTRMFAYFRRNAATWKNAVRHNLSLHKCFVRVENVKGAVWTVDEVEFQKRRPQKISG
Test: PD-seq (MBP pull-down with sequencing); 20 mM Tris-HCl pH 7.5, 100 mM NaCl, 1.5 mM MgCl2, 0.4 uM protein, 0.1 uM dsDNA library, 30 min, room temperature, amylose pull-down; high values mean tight binding
Settings: protein: recombinant; tags: His6-MBP; chain copies: 2; dsDNA, one strand shown
Outline: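 Protein and DNA were mixed at 0.4 µM and 0.1 µM and held for 30 min at room temperature in Tris pH 7.5 buffer with NaCl and MgCl2; the protein was a His6-MBP-tagged, N-terminally truncated mouse FoxP3 or FoxP1 fragment from E. coli, and the DNA a Klenow-filled double-stranded degenerate library. Amylose resin captured the complexes, which were washed three times. Binding is read as reads-per-million enrichment of pull-down versus input after Illumina sequencing, with replicates pooled.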

Sequence | binding signal
GATGATTGTTCTCCCAGCTGATGAATTTGCTCAGTCGAGTAAACAAATTTTCCTAATCTTTCTGTTCAAGCGCCATCTAC | 0.919 RPM ratio (pull-down/input)
GATGATTGTTCTCCCAGCTGATGAATTAACATATTCGAGTAAACAAATTTTCCTAATCTTTCTGTTCAAGCGCCATCTAC | 1.25 RPM ratio (pull-down/input)
GATGATTGTTCTCCCAGCTGATGAATTTGCGGCGTCGAGTAAACAAATTTTCCTAATCTTTCTGTTCAAGCGCCATCTAC | 0.949 RPM ratio (pull-down/input)
GATGATTGTTCTCCCAGCTGATGAATTGTCTGGGTCGAGTAAACAAATTTTCCTAATCTTTCTGTTCAAGCGCCATCTAC | 0.864 RPM ratio (pull-down/input)
GATGATTGTTCTCCCAGCTGATGAATTAGCCGGCTCGAGTAAACAAATTTTCCTAATCTTTCTGTTCAAGCGCCATCTAC | 0.727 RPM ratio (pull-down/input)
GATGATTGTTCTCCCAGCTGATGAATTTCTGGGTTCGAGTAAACAAATTTTCCTAATCTTTCTGTTCAAGCGCCATCTAC | 0.74 RPM ratio (pull-down/input)
GATGATTGTTCTCCCAGCTGATGAATTGTCAGCCTCGAGTAAACAAATTTTCCTAATCTTTCTGTTCAAGCGCCATCTAC | 0.917 RPM ratio (pull-down/input)
GATGATTGTTCTCCCAGCTGATGAATTGTACGCTTCGAGTAAACAAATTTTCCTAATCTTTCTGTTCAAGCGCCATCTAC | 1.02 RPM ratio (pull-down/input)
GATGATTGTTCTCCCAGCTGATGAATTCGCGGTTTCGAGTAAACAAATTTTCCTAATCTTTCTGTTCAAGCGCCATCTAC | 0.843 RPM ratio (pull-down/input)
GATGATTGTTCTCCCAGCTGATGAATTGTCGCTATCGAGTAAACAAATTTTCCTAATCTTTCTGTTCAAGCGCCATCTAC | 1.11 RPM ratio (pull-down/input)
GATGATTGTTCTCCCAGCTGATGAATTTAACAATTCGAGTAAACAAATTTTCCTAATCTTTCTGTTCAAGCGCCATCTAC | 1.01 RPM ratio (pull-down/input)
GATGATTGTTCTCCCAGCTGATGAATTTCCACAATCGAGTAAACAAATTTTCCTAATCTTTCTGTTCAAGCGCCATCTAC | 1.2 RPM ratio (pull-down/input)
GATGATTGTTCTCCCAGCTGATGAATTGCAGAACTCGAGTAAACAAATTTTCCTAATCTTTCTGTTCAAGCGCCATCTAC | 1.06 RPM ratio (pull-down/input)
GATGATTGTTCTCCCAGCTGATGAATTTCCATATTCGAGTAAACAAATTTTCCTAATCTTTCTGTTCAAGCGCCATCTAC | 0.917 RPM ratio (pull-down/input)
GATGATTGTTCTCCCAGCTGATGAATTCCACATGTCGAGTAAACAAATTTTCCTAATCTTTCTGTTCAAGCGCCATCTAC | 0.875 RPM ratio (pull-down/input)
GATGATTGTTCTCCCAGCTGATGAATTCCATCGATCGAGTAAACAAATTTTCCTAATCTTTCTGTTCAAGCGCCATCTAC | 0.854 RPM ratio (pull-down/input)
GATGATTGTTCTCCCAGCTGATGAATTCTGCCGCTCGAGTAAACAAATTTTCCTAATCTTTCTGTTCAAGCGCCATCTAC | 0.816 RPM ratio (pull-down/input)
GATGATTGTTCTCCCAGCTGATGAATTGTGGCTATCGAGTAAACAAATTTTCCTAATCTTTCTGTTCAAGCGCCATCTAC | 1.1 RPM ratio (pull-down/input)
GATGATTGTTCTCCCAGCTGATGAATTGGGATGATCGAGTAAACAAATTTTCCTAATCTTTCTGTTCAAGCGCCATCTAC | 0.921 RPM ratio (pull-down/input)
GATGATTGTTCTCCCAGCTGATGAATTATGCCATTCGAGTAAACAAATTTTCCTAATCTTTCTGTTCAAGCGCCATCTAC | 1.11 RPM ratio (pull-down/input)

Sequence | binding signal
GATGATTGTTCTCCCAGCTGATGAATTATCAGAATCGAGTAAACAAATTTTCCTAATCTTTCTGTTCAAGCGCCATCTAC | 1.03 RPM ratio (pull-down/input)
GATGATTGTTCTCCCAGCTGATGAATTCTCTCCCTCGAGTAAACAAATTTTCCTAATCTTTCTGTTCAAGCGCCATCTAC | 0.835 RPM ratio (pull-down/input)
GATGATTGTTCTCCCAGCTGATGAATTTCTAACGTCGAGTAAACAAATTTTCCTAATCTTTCTGTTCAAGCGCCATCTAC | 0.955 RPM ratio (pull-down/input)
GATGATTGTTCTCCCAGCTGATGAATTGTGCTAGTCGAGTAAACAAATTTTCCTAATCTTTCTGTTCAAGCGCCATCTAC | 1.06 RPM ratio (pull-down/input)
GATGATTGTTCTCCCAGCTGATGAATTATTGATGTCGAGTAAACAAATTTTCCTAATCTTTCTGTTCAAGCGCCATCTAC | 1.85 RPM ratio (pull-down/input)
GATGATTGTTCTCCCAGCTGATGAATTCTTACACTCGAGTAAACAAATTTTCCTAATCTTTCTGTTCAAGCGCCATCTAC | 0.933 RPM ratio (pull-down/input)
GATGATTGTTCTCCCAGCTGATGAATTCTCCTGTTCGAGTAAACAAATTTTCCTAATCTTTCTGTTCAAGCGCCATCTAC | 0.847 RPM ratio (pull-down/input)
GATGATTGTTCTCCCAGCTGATGAATTCAGCAGTTCGAGTAAACAAATTTTCCTAATCTTTCTGTTCAAGCGCCATCTAC | 0.816 RPM ratio (pull-down/input)
GATGATTGTTCTCCCAGCTGATGAATTGCGCTAGTCGAGTAAACAAATTTTCCTAATCTTTCTGTTCAAGCGCCATCTAC | 1.06 RPM ratio (pull-down/input)
GATGATTGTTCTCCCAGCTGATGAATTCGCGTTGTCGAGTAAACAAATTTTCCTAATCTTTCTGTTCAAGCGCCATCTAC | 1.08 RPM ratio (pull-down/input)
GATGATTGTTCTCCCAGCTGATGAATTTTCTGTGTCGAGTAAACAAATTTTCCTAATCTTTCTGTTCAAGCGCCATCTAC | 0.968 RPM ratio (pull-down/input)
GATGATTGTTCTCCCAGCTGATGAATTTTGAGGCTCGAGTAAACAAATTTTCCTAATCTTTCTGTTCAAGCGCCATCTAC | 0.901 RPM ratio (pull-down/input)
GATGATTGTTCTCCCAGCTGATGAATTTTGGGCGTCGAGTAAACAAATTTTCCTAATCTTTCTGTTCAAGCGCCATCTAC | 0.936 RPM ratio (pull-down/input)
GATGATTGTTCTCCCAGCTGATGAATTACGGAGGTCGAGTAAACAAATTTTCCTAATCTTTCTGTTCAAGCGCCATCTAC | 0.909 RPM ratio (pull-down/input)
GATGATTGTTCTCCCAGCTGATGAATTCCAATTCTCGAGTAAACAAATTTTCCTAATCTTTCTGTTCAAGCGCCATCTAC | 0.895 RPM ratio (pull-down/input)
GATGATTGTTCTCCCAGCTGATGAATTAAGCGGCTCGAGTAAACAAATTTTCCTAATCTTTCTGTTCAAGCGCCATCTAC | 0.738 RPM ratio (pull-down/input)
GATGATTGTTCTCCCAGCTGATGAATTTACAGCCTCGAGTAAACAAATTTTCCTAATCTTTCTGTTCAAGCGCCATCTAC | 1.03 RPM ratio (pull-down/input)
GATGATTGTTCTCCCAGCTGATGAATTCACATGTTCGAGTAAACAAATTTTCCTAATCTTTCTGTTCAAGCGCCATCTAC | 1.06 RPM ratio (pull-down/input)
GATGATTGTTCTCCCAGCTGATGAATTGAGAGCATCGAGTAAACAAATTTTCCTAATCTTTCTGTTCAAGCGCCATCTAC | 0.953 RPM ratio (pull-down/input)
GATGATTGTTCTCCCAGCTGATGAATTGGGCCGCTCGAGTAAACAAATTTTCCTAATCTTTCTGTTCAAGCGCCATCTAC | 0.814 RPM ratio (pull-down/input)
